According to the supplement of paper PMC3334620:
Over roughly 33,000 sequences, “E-score (-0.5 to 0.5)” has its median near -0.016; the highest 2% begin near 0.32. The list shows a part of the results.

Biological target: T1, Stp1 (UniProt B3LFK1)
T1 sequence: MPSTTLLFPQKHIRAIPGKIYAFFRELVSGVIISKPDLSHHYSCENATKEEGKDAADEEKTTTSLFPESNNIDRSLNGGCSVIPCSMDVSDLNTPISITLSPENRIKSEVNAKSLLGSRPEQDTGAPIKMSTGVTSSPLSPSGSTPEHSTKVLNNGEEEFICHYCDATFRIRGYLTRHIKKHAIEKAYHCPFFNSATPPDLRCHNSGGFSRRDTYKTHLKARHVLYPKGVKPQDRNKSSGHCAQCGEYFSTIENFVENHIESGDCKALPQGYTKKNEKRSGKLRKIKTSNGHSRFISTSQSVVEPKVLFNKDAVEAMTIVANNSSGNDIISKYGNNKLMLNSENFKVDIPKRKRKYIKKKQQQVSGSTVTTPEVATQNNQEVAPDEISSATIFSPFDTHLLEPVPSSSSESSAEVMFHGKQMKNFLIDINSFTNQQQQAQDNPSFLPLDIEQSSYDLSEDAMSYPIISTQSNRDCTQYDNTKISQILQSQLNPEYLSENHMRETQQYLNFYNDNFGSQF
Assay: PBM E-score (8-mer binding enrichment) (E-score (-0.5 to 0.5)); higher = stronger / more preferred TF binding; most listed sequences are background and not binding sites
Conditions: protein concentration: 200 nM; construct: GST-full length
Procedure, shortened: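 Using PURExpress in vitro transcription/translation, GST-tagged yeast transcription factors were made in full-length or DNA-binding-domain form. These were applied at about 100-200 nM to double-stranded universal all-10-mer Agilent arrays, and bound protein was detected with fluorescent anti-GST. Scans were normalised with masliner before the Universal PBM Analysis Suite assigned E-scores to ungapped eight-base words pooled with their reverse complements.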

Row | Sequence | PBM E-score
1 | ACGTGGCT | 0.0706
2 | GGAAACAC | 0.147
3 | CGGAGAGC | -0.0882
4 | AGCTAAAT | -0.0323
5 | ATATGGCC | -0.00502
6 | GAAAACTA | 0.00141
7 | CTCGATTA | 0.12
8 | CGGGCGTC | -0.182
9 | ACATTGTA | 0.0692
10 | CACAGGCG | 0.0731
11 | AAGCCAAT | -0.0635
12 | TAACAAAA | 0.212
13 | TCGTTGCA | -0.0803
14 | GGCCACAC | 0.0354
15 | GCAGATGC | 0.0938
16 | AATGCTTG | -0.141
17 | TTGCTAAA | -0.0568
18 | GTCCGCCA | -0.128
19 | AAACGTGA | -0.0114
20 | AGCAGTTG | -0.0998
21 | GCTCCCAA | -0.0914
22 | ACTGGTAA | 0.0824

Row | Sequence | PBM E-score
23 | GCCGCAGA | 0.372
24 | CATTTCAG | -0.0364
25 | GCTCGCCA | -0.0796
26 | GTCTGCGA | -0.0312
27 | AGATGATC | -0.0784
28 | AGTCGTCG | -0.233
29 | CGTCATTC | 0.027
30 | TGCAAGCA | -0.0579
31 | CTAAGTGC | 0.0783
32 | CCATAGGG | -0.0433
33 | CGTGAAAG | 0.0861
34 | ACTGCCCA | -0.0833
35 | ACCAGCTA | -0.0313
36 | ATTATCCC | -0.172
37 | ATGCGCAA | 0.0361
38 | AGTAGGCC | -0.0697
39 | AACTGGTC | -0.143
40 | GCCGCGTA | 0.465
41 | AGAGGGTG | -0.242
42 | CAGGCAGA | -0.0212
43 | GTAGCTAA | -0.0438
44 | CTAGCGGC | 0.073

Row | Sequence | PBM E-score
45 | CATGCTCA | -0.172
46 | AGCCTTCG | -0.162
47 | CATGCCTC | 0.264
48 | ATCGTGGA | -0.044
49 | GAAGCGAC | -0.0463
50 | AAGCCTAT | 0.0334
51 | CGAGGATA | -0.12
52 | GGTTATAA | -0.0452
53 | CAACCACG | 0.0433
54 | CTGCAGGC | -0.372
55 | GCTAAACA | 0.0697
56 | CTATGCCA | -0.028
57 | AAAGGCGT | 0.192
58 | AACCAAGG | 0.138
59 | GCCTCAAA | 0.00655
60 | CTGGAGCC | -0.0112
61 | AATGGGGT | -0.0681
62 | ATCCTAGG | -0.101
63 | CCTACAGA | -0.103
64 | ACCCCGGT | -0.338
65 | CTTAAGGC | 0.162
66 | ATCGCTTC | 0.00562

Row | Sequence | PBM E-score
67 | GCAAACCA | 0.115
68 | CGAGCACG | 0.0219
69 | AGCGAGAT | 0.0004
70 | GGTTAAAC | 0.0174
71 | CGTAGTTC | 0.0178
72 | ATTTGGGC | -0.203
73 | GCCGAGGC | 0.357
74 | ATCTAGGG | -0.15
75 | TCCAACCA | -0.133
76 | ATCGTGCC | 0.281
77 | GACGTCTC | -0.169
78 | GAGTGAAA | 0.0471
79 | AGCACACC | -0.23
80 | AACCAAAC | -0.241
81 | ACCAAAAA | 0.218
82 | ATTTAGGC | 0.112
83 | CAGATCTC | -0.126
84 | AGGCTCCC | -0.191
85 | CCTTGCAC | 0.127
86 | CTGAGCAA | -0.0665
87 | CTGAAAAG | -0.0563
88 | CCGTGGCC | 0.179

Row | Sequence | PBM E-score
89 | ATCCATGA | -0.224
90 | CAGGACCA | -0.202
91 | AGCCGAAG | -0.038
92 | GAACGTTC | -0.216
93 | ATTGCCAC | 0.112
94 | AGCGATTA | -0.0409
95 | GAGCGTAC | -0.208
96 | GCCAATGA | -0.174
97 | GACGCTGC | -0.0804
98 | AGTTACCC | -0.115
99 | CTACCAAC | 0.0028
100 | CGTGAGGA | 0.00424
101 | ACTCAACA | 0.103
102 | GGACCGCA | -0.124
103 | CTTACCGC | 0.0411
104 | AGACGCAG | -0.0897
105 | ACCCTAGA | -0.227
106 | ACTAAAGA | 0.094
107 | CAGTTTTA | -0.191
108 | CGACGTAG | -0.258
109 | ATGTACAG | -0.157
110 | CAATTCGA | -0.0848
